From paper PMC9223716
Read-outs that look alike come from different tables or passages of the source. Results are given in words; binding and its absence hold for the method and conditions named. In cells and extracts the contact can be indirect. Some entries that bind do so weakly or less than the wild type. One block for each molecule: values may come before it.

Amino acid sequences for entries named in this document (tags omitted).
UniProt P11881: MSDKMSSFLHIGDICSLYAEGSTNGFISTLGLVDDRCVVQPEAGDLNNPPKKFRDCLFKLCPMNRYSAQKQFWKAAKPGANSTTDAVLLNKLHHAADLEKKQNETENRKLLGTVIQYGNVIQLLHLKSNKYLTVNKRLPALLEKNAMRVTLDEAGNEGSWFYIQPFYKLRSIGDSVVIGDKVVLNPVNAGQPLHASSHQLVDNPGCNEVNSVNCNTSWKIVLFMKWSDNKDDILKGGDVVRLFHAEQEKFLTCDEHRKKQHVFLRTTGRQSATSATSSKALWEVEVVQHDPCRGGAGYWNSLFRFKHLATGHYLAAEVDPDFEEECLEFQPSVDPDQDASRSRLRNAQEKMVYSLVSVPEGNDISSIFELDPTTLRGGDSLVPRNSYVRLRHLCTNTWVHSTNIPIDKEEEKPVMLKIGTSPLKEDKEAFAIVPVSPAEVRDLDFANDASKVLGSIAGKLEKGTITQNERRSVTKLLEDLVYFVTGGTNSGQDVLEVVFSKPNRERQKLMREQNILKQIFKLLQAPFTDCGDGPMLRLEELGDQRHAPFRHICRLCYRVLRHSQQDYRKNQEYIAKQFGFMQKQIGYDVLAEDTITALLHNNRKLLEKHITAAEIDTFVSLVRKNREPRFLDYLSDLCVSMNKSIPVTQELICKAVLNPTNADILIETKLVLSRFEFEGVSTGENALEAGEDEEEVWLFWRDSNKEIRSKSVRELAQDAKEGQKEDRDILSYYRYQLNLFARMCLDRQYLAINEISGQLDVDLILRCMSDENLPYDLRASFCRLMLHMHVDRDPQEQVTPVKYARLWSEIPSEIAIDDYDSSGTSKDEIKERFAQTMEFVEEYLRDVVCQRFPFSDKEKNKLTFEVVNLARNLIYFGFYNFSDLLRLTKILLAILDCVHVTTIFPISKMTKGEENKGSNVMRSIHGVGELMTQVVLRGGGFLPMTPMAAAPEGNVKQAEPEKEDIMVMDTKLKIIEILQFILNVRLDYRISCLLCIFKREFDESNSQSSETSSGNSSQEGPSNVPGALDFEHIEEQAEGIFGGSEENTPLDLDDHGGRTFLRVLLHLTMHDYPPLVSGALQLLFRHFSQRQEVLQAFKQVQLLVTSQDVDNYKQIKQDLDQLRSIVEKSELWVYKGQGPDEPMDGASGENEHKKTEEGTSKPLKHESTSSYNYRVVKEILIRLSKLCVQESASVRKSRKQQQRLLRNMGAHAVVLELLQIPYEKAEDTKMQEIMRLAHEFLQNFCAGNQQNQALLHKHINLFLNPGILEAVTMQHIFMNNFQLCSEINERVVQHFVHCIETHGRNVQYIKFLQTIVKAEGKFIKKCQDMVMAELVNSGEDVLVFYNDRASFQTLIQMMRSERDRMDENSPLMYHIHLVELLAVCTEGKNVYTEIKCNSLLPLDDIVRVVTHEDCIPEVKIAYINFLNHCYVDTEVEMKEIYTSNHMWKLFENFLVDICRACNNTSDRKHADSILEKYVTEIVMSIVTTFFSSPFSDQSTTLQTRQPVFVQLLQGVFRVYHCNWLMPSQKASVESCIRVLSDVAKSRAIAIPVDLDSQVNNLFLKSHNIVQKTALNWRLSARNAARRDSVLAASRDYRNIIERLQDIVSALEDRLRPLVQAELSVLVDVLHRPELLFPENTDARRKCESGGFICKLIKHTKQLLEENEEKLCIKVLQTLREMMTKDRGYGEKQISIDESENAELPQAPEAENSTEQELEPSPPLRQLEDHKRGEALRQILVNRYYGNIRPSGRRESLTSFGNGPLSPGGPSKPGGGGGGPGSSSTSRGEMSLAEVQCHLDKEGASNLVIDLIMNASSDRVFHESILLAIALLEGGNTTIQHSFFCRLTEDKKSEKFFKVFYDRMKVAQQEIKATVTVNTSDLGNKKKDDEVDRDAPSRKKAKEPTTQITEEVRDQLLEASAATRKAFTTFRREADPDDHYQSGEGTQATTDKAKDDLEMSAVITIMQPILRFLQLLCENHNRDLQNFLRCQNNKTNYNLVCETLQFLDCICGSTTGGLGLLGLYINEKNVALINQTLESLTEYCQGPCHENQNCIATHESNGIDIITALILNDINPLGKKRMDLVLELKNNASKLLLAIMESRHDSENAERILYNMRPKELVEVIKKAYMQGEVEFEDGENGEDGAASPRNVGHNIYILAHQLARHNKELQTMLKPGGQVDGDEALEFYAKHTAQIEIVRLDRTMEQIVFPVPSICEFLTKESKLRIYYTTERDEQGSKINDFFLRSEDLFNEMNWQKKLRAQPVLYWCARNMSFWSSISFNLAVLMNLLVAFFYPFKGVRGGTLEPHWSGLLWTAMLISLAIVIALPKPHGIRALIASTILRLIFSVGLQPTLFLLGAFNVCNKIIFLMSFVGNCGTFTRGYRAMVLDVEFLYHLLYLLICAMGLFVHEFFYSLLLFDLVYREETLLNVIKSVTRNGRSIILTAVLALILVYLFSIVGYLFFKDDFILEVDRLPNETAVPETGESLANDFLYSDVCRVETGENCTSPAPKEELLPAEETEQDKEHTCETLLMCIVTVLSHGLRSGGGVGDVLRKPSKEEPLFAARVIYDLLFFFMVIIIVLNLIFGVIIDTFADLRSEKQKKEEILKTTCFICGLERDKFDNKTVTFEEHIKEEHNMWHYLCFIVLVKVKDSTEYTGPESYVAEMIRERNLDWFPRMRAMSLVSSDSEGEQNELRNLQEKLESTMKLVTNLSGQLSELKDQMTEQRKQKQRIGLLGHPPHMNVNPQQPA
UniProt P70227: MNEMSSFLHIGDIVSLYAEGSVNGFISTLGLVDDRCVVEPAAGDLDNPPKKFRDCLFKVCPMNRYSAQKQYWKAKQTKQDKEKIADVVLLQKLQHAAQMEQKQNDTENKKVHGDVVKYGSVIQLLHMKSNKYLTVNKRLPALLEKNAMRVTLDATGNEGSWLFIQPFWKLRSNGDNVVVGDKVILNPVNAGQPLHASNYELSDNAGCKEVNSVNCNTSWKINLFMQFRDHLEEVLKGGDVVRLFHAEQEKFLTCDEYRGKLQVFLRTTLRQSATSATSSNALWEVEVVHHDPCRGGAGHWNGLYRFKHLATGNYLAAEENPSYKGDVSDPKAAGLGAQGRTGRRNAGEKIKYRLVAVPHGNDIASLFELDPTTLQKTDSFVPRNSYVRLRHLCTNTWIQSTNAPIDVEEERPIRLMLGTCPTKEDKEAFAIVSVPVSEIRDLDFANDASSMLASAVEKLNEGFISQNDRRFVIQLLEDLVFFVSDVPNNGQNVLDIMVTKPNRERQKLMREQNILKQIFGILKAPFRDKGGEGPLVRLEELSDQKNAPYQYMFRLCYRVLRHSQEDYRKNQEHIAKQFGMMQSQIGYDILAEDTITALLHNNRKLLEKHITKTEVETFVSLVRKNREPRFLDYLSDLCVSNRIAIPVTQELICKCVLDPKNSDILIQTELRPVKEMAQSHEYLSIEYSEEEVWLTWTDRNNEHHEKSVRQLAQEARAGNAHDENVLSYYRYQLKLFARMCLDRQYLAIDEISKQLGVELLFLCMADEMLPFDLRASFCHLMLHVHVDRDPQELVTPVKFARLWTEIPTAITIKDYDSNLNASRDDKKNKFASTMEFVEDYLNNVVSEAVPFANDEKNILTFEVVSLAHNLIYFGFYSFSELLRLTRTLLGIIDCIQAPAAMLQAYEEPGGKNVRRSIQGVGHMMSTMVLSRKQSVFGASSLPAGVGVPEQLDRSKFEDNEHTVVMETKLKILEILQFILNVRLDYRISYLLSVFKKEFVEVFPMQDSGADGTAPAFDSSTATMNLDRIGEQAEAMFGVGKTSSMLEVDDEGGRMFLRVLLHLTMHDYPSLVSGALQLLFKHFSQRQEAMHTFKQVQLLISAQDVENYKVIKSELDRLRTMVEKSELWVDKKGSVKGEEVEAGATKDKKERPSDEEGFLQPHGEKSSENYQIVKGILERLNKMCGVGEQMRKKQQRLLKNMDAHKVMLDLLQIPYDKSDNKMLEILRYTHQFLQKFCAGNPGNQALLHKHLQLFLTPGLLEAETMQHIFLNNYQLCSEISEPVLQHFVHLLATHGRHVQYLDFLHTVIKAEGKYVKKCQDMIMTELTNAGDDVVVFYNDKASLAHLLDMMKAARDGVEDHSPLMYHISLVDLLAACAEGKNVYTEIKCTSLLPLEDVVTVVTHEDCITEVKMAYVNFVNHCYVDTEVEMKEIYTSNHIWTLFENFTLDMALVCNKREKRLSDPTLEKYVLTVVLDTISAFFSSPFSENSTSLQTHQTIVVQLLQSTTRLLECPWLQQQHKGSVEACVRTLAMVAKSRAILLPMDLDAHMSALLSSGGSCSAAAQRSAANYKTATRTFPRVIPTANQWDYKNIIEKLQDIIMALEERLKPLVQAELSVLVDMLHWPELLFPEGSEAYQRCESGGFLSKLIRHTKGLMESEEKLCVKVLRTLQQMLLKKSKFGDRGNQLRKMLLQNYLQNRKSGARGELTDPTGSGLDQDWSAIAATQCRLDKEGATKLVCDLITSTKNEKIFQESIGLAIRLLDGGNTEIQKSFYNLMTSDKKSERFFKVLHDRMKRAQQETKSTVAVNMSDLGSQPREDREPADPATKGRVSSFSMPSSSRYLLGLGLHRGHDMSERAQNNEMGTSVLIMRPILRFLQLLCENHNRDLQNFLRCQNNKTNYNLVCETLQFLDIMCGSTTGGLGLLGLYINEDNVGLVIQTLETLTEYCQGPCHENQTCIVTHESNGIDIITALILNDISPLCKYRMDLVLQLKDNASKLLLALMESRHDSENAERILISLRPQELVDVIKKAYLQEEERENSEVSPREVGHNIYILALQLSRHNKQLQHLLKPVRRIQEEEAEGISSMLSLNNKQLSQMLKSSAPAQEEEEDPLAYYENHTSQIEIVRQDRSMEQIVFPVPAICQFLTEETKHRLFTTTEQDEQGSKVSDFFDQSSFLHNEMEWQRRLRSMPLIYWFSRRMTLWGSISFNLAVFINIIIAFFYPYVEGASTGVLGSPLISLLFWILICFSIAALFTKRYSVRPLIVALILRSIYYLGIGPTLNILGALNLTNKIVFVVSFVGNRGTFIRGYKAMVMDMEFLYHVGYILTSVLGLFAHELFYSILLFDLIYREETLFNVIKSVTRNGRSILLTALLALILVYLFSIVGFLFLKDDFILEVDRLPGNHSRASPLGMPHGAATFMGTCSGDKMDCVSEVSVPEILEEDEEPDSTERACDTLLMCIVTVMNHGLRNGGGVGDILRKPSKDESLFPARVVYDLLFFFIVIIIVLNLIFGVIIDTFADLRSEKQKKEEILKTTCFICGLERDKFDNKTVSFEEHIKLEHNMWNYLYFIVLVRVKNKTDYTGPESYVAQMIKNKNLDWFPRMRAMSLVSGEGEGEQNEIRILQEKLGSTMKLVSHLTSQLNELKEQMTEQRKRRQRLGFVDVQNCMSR

Legend:
[1] = target: T1, Inositol 1,4,5-triphosphate receptor-associated 2 (IRAG2) (mouse (endogenous in murine platelets)) (UniProt Q60664); test: co-IP; IRAG2 precipitated with anti-mouse LRMP (C-terminal) antibody and Protein-A-Sepharose from 1000 µg platelet lysate of IRAG2-WT and IRAG2-KO mice; 50 mM Tris HCl, 15 mM EGTA, 100 mM NaCl, 0.1% Triton X-100, pH 7.5, 1 mM DTT; Western Blot of partners
T1 sequence: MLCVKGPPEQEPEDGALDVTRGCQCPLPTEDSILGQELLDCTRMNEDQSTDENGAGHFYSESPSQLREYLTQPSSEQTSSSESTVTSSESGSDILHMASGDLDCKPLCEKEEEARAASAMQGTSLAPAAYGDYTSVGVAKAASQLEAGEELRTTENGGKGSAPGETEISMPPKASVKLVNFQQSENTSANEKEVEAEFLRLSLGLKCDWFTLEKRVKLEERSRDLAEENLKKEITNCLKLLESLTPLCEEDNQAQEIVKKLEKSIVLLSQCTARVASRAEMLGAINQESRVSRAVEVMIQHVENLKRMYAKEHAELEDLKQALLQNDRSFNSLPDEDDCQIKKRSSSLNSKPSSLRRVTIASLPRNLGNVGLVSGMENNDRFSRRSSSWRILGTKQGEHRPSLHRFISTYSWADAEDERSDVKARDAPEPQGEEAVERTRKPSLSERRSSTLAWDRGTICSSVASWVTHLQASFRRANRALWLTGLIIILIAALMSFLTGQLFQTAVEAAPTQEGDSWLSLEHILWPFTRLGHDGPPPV

[2] = target: T1, Inositol 1,4,5-triphosphate receptor-associated 2 (IRAG2) (mouse (endogenous in murine platelets)); test: as above; remark: listed apart in the source
[3] = target: T2, Inositol 1,4,5-triphosphate receptor-associated cGMP kinase substrate 1 (IRAG1) (mouse (endogenous in murine platelets)) (UniProt Q9WUX5); test: co-IP; IRAG1 precipitated with IRAG1-specific antibody from platelets of IRAG2-WT and IRAG2-KO mice; Western Blot for IRAG2 (Figure S2)
T2 sequence: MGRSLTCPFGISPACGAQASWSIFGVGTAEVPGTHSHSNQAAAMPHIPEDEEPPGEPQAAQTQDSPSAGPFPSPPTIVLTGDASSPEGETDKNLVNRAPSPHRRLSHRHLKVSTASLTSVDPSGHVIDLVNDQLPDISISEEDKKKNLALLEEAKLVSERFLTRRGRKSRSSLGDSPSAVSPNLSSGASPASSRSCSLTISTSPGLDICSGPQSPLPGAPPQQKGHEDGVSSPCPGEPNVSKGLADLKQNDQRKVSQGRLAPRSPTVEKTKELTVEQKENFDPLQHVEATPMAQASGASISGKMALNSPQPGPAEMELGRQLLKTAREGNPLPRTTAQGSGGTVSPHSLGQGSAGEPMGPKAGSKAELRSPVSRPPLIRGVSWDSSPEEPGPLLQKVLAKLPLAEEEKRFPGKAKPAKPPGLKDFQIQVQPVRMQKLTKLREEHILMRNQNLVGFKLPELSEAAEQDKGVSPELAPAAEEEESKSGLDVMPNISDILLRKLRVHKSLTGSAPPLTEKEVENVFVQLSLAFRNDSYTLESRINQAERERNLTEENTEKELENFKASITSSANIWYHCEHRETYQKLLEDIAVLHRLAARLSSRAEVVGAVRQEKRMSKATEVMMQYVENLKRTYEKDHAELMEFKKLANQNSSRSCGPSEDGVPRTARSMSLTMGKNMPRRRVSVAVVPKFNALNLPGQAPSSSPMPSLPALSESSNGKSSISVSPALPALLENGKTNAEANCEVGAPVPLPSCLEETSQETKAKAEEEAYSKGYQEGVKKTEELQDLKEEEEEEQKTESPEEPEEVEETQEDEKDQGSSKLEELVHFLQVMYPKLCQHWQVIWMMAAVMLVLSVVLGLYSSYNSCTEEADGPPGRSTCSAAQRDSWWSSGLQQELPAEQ

binding [1]: binds weakly
Molecule: IP3 receptor type 1 (IP3R1) (from UniProt P11881 1-2749)

binding [1]: binds weakly
Molecule: IP3 receptor type 3 (IP3R3) (from UniProt P70227 1-2670)

binding [2]: no binding
B1: cGMP-dependent protein kinase I beta (PKGIβ) (enzyme, UniProt P0C605-2 1-686)
chain: MGTLRDLQYALQEKIEELRQRDALIDELELELDQKDELIQKLQNELDKYRSVIRPATQQAQKQSASTLQGEPRTKRQAISAEPTAFDIQDLSHVTLPFYPKSPQSKDLIKEAILDNDFMKNLELSQIQEIVDCMYPVEYGKDSCIIKEGDVGSLVYVMEDGKVEVTKEGVKLCTMGPGKVFGELAILYNCTRTATVKTLVNVKLWAIDRQCFQTIMMRTGLIKHTEYMEFLKSVPTFQSLPDEILSKLADVLEETHYENGEYIIRQGARGDTFFIISKGQVNVTREDSPSEDPVFLRTLGKGDWFGEKALQGEDVRTANVIAAEAVTCLVIDRDSFKHLIGGLDDVSNKAYEDAEAKAKYEAEAAFFANLKLSDFNIIDTLGVGGFGRVELVQLKSEESKTFAMKILKKRHIVDTRQQEHIRSEKQIMQGAHSDFIVRLYRTFKDSKYLYMLMEACLGGELWTILRDRGSFEDSTTRFYTACVVEAFAYLHSKGIIYRDLKPENLILDHRGYAKLVDFGFAKKIGFGKKTWTFCGTPEYVAPEIILNKGHDISADYWSLGILMYELLTGSPPFSGPDPMKTYNIILRGIDMIEFPKKIAKNAANLIKKLCRDNPSERLGNLKNGVKDIQKHKWFEGFNWEGLRKGTLTPPIIPSVASPTDTSNFDSFPEDSDEPPPDDNSGWDIDF

binding [3]: no binding
B2: Inositol 1,4,5-triphosphate receptor-associated 2 (IRAG2) (protein, UniProt Q60664 1-539)
chain: T1 sequence

binding [2]: no binding
B3: Inositol 1,4,5-triphosphate receptor-associated cGMP kinase substrate 1 (IRAG1) (protein, UniProt Q9WUX5 1-899)
chain: T2 sequence
